Measured values as given in the supplement of paper PMC6089552.
Out of some 3,200 compounds screened, about 300 (9.4%) showed activity. The entries are a selection whose mix differs from that of the whole data set.

Test system: A673/TR/shEF
Experiment: cell viability (LOESS-normalised, relative to median of negative controls) (log2 ratio); higher = more viable cells (less compound effect), active = hit call of the paper (over 3 MAD below the median)
Conditions: treatment time: 72 h
Outline: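 Viability of A673/TR/shEF Ewing sarcoma cells was determined by CellTiter-Glo luminescence. The cells, at 1,500 per well in 384-well plates, were grown with or without doxycycline from 24 h before compound addition to switch on EWS-FLI1 shRNA knockdown, then exposed for three days to library compounds at two or more concentrations or to DMSO controls. Signals were LOESS-corrected plate by plate, normalised to the negative-control median and log2-transformed.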

[1] = 0.25 µM, library screen: screen1, EWS-FLI1 expression: high (no doxycycline)
[2] = 0.25 µM, library screen: screen1, EWS-FLI1 expression: low (doxycycline-induced shRNA knockdown)
[3] = 2.5 µM, library screen: screen1, EWS-FLI1 expression: high (no doxycycline)
[4] = 2.5 µM, library screen: screen1, EWS-FLI1 expression: low (doxycycline-induced shRNA knockdown)
[5] = 0.25 µM, library screen: screen2, EWS-FLI1 expression: high (no doxycycline)
[6] = 0.25 µM, library screen: screen2, EWS-FLI1 expression: low (doxycycline-induced shRNA knockdown)
[7] = 2.5 µM, library screen: screen2, EWS-FLI1 expression: high (no doxycycline)
[8] = 2.5 µM, library screen: screen2, EWS-FLI1 expression: low (doxycycline-induced shRNA knockdown)
[9] = 0.103 µM, library screen: screen3, EWS-FLI1 expression: high (no doxycycline)
[10] = 0.103 µM, library screen: screen3, EWS-FLI1 expression: low (doxycycline-induced shRNA knockdown)
[11] = 0.308 µM, library screen: screen3, EWS-FLI1 expression: high (no doxycycline)
[12] = 0.308 µM, library screen: screen3, EWS-FLI1 expression: low (doxycycline-induced shRNA knockdown)
[13] = 0.926 µM, library screen: screen3, EWS-FLI1 expression: high (no doxycycline)
[14] = 0.926 µM, library screen: screen3, EWS-FLI1 expression: low (doxycycline-induced shRNA knockdown)
[15] = 2.8 µM, library screen: screen3, EWS-FLI1 expression: high (no doxycycline)
[16] = 2.8 µM, library screen: screen3, EWS-FLI1 expression: low (doxycycline-induced shRNA knockdown)
[17] = 8.3 µM, library screen: screen3, EWS-FLI1 expression: high (no doxycycline)
[18] = 8.3 µM, library screen: screen3, EWS-FLI1 expression: low (doxycycline-induced shRNA knockdown)
[19] = 25 µM, library screen: screen3, EWS-FLI1 expression: high (no doxycycline)
[20] = 25 µM, library screen: screen3, EWS-FLI1 expression: low (doxycycline-induced shRNA knockdown)
[21] = 25 µM, library screen: screen1, EWS-FLI1 expression: high (no doxycycline)

Measured: cell viability (log2)

Oc1ccc(Cl)c2cccnc12
inactive: [1] 0.0488 | [2] 0.119 | [3] 0.153 | [4] 0.115

O=C(O)CCC(=O)N1CCCC1C(=O)O (stereo not given)
inactive: [5] 0.193 | [6] 0.0669 | [7] 0.208 | [8] 0.0645

CN1CCc2ccccc2Cc2[nH]c3ccccc3c2CC1
inactive: [5] 0.0116 | [6] 0.091 | [7] 0.105 | [8] -0.105

Nc1ccccn1
inactive: [1] 0.153 | [2] 0.0142 | [3] 0.204 | [4] -0.00691

COc1c(O)cc(O)c2c(=O)c(-c3ccc(O)cc3)coc12
inactive: [1] 0.0728 | [2] 0.0747 | [3] 0.145 | [4] 0.165

CC(C)(Sc1cc(C(C)(C)C)c(O)c(C(C)(C)C)c1)Sc1cc(C(C)(C)C)c(O)c(C(C)(C)C)c1
inactive: [1] 0.147 | [2] 0.0373 | [3] 0.16 | [4] 0.122

COc1cc(Cc2cnc(N)nc2N)cc(OC)c1OC
active: [5] -0.215 | [6] -0.0762 | [7] -1.67 | [8] -2.59
inactive: [1] 0.149 | [2] 0.184 | [3] 0.204 | [4] 0.321

NC(=O)C(=O)O
inactive: [5] 0.137 | [6] 0.013 | [7] 0.0237 | [8] -0.00276

COc1ccc([C@H]2CNC(=O)C2)cc1OC1CCCC1
inactive: [9] 0.0822 | [10] 0.0894 | [11] 0.108 | [12] 0.0819 | [13] 0.0914 | [14] 0.0534 | [15] 0.035 | [16] 0.0665 | [17] 0.0619 | [18] 0.0322 | [19] 0.15 | [20] 0.0323

CCN(CC)CCOC(=O)C(c1ccccc1)C1CCCCC1 (stereo not given)
inactive: [1] 0.0555 | [2] 0.0399 | [3] 0.16 | [4] -0.0449

C=CC(=O)c1ccc2ccccc2c1
active: [3] -0.264 | [21] -0.287
inactive: 0.025 µM, library screen: screen1, EWS-FLI1 expression: low (doxycycline-induced shRNA knockdown) 0.0903 | [2] 0.00371 | [4] 0.198 | 25 µM, library screen: screen1, EWS-FLI1 expression: low (doxycycline-induced shRNA knockdown) -0.0301
0.286: [1]
0.279: 0.025 µM, library screen: screen1, EWS-FLI1 expression: high (no doxycycline)

NS(=O)(=O)c1cccc2c1c([N+](=O)[O-])cc1nc(O)c(O)nc12
inactive: [5] 0.201 | [6] 0.173 | [7] 0.0681 | [8] 0.042

COc1cc2c(cc1OC)C(=O)C(CC1CCN(Cc3ccccc3)CC1)C2 (stereo not given)
inactive: [9] -0.0816 | [10] 0.0748 | [1] 0.0675 | [2] 0.0517 | [11] 0.04 | [12] 0.0571 | [13] 0.0918 | [14] 0.0635 | [3] 0.0667 | [4] 0.0263 | [15] 0.0185 | [16] 0.0287 | [17] 0.0526 | [18] 0.0184 | [19] 0.136 | [20] 0.0264

CCCCC(CC)CN1CN(CC(CC)CCCC)CC(C)(N)C1 (stereo not given)
inactive: [1] 0.138 | [2] 0.149 | [3] 0.164 | [4] 0.252

NC(N)=NCc1cccc(I)c1
inactive: [5] 0.0563 | [6] 0.101 | [7] 0.134 | [8] 0.13

CO[C@@]1(NC(=O)Cc2cccs2)C(=O)N2C(C(=O)O)=C(COC(N)=O)CS[C@@H]21
inactive: [1] 0.0661 | [2] 0.0398 | [3] 0.0907 | [4] 0.113

CC(C)(C)c1ccccc1OCC(O)CN1CCCCC1 (stereo not given)
inactive: [1] 0.09 | [2] 0.0909 | [3] 0.176 | [4] 0.0864

CC1(COc2ccc3c(c2)ncn3-c2ccc3cccc(N4CCC(N)CC4)c3n2)COC1
active: [17] -0.22 | [19] -1.66 | [20] -0.632

C[C@]12CC[C@H]3C(=CCc4cc(O)ccc43)[C@@H]1CCC2=O
inactive: [1] -0.0145 | [2] 0.064 | [3] 0.0236 | [4] 0.138

O=C(NC1CCOCC1)c1ccc(-c2cc(-c3cn[nH]c3-c3ccccn3)ccn2)cc1
inactive: [9] 0.0414 | [10] -0.0267 | [11] 0.00678 | [12] 0.0198 | [13] -0.00971 | [14] 0.0278 | [15] 0.0251 | [16] 0.0026 | [17] 0.0359 | [18] 0.0142 | [19] -0.00807 | [20] 0.103

N=C(N)N
inactive: [1] 0.0673 | [2] 0.121 | [3] 0.0922 | [4] 0.00435

NC(N)=NCCNS(=O)(=O)c1cccc2cnccc12
active: [3] -0.325 | [21] -0.105

CNC(=O)[C@H]1O[C@@H](n2cnc3c(NCc4cccc(I)c4)ncnc32)[C@H](O)[C@@H]1O
inactive: [5] 0.0881 | [6] 0.143 | [7] 0.186 | [8] 0.124
